Assay results taken from PubChem BioAssay AID1345082 (National Center for Advancing Translational Sciences (NCATS), 2018).
The whole screen tested about 94,000 compounds, of which about 4,000 (4.3%) were called active. This list was built around the results that the source calls inconclusive (neither active nor inactive); the mix of calls is not that of the screen. Calls follow the shape of the dose curve; as a rule, active = well fitted inhibition curve with a large enough effect; inconclusive = small, poorly fitted or top-dose-only effect; inactive = no such curve, though single readings can be large or run the other way. Potencies of inconclusive entries are doubtful fits and often do not repeat.

Assay: Cytotoxic Profiling in NIH 3T3 Cell Line of Diverse Libraries Using Quantitative High-Throughput Screening; also: nearly all actives have a fitted effect of over 55% in size
Settings: NIH 3T3 viability, CellTiter-Glo ATP luminescence, 48-72 h; activity change, negative = cytotoxicity: at 96.7 µM (top of the series); series mostly up to 96.7 µM
Procedure, shortened: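 NIH 3T3 cells at 400 cells/well received 23 nL of compound by pintool and were incubated 48 or 72 h at 37 °C. Viability was read as ATP-coupled CellTiter-Glo luminescence.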
% is scaled to controls: 0 for no effect and ±100 for the full control effect; potency is read from the fitted curve at half-maximal effect; tags tell the direction and shape of the fitted curve.

Compound | activity change, negative = cytotoxicity | Potency
Cn1ncc2c(C(=O)N3CCCC3)cc(-c3ccccc3C(F)(F)F)nc21 | inactive: -26.5% | –
CC(Cn1cccn1)C(=O)N1CCC2(CC1)Nc1ccccc1NC2=O (centres undefined) | inactive: -14.7% | –
COc1ccc(-c2nccn3cc(C(=O)NCCc4ccccn4)nc23)cc1 | – | inconclusive: 44.7 µM [inhibitor, partial curve, poor fit]
COCC(=O)NC1CCN(Cc2cccc(-c3ccc(SC)cc3)c2)CC1 | – | inconclusive: 56.2 µM [inhibitor, partial curve, poor fit]
COc1ccc(-c2cc(CNC(=O)c3cn(CCN)nn3)no2)cc1 | – | inconclusive: 50.1 µM [inhibitor, partial curve, poor fit]
COCCNC(=O)[C@@H]1C[C@H](Oc2ccccc2)CN1S(=O)(=O)c1c(C)noc1C | inactive: -6.7% | –
Cc1cc2cc(-c3c(C)noc3C)nc(N(C)C)c2o1 | – | inconclusive: 100 µM [inhibitor, partial curve]
CN(C)C[C@@H]1CN(C2CCOCC2)C[C@H]1NC(=O)c1cccc(Cl)c1 | inactive: 0.758% | –
CC(C)CCN1C(=O)CC[C@]2(C(=O)N(C)Cc3ccco3)CCCC[C@@H]12 | inactive: -27.8% | –
Cc1ccsc1C(=O)N1CCC2(CC1)N=C(c1ccc(Cl)cc1)NO2 | – | inconclusive: 44.7 µM [inhibitor, partial curve, poor fit]
COc1cccc(-c2n[nH]c3c2CC(=O)N(Cc2ccccc2)C3)c1 | – | inconclusive: 20 µM [inhibitor, full curve, poor fit]
CCCCC(=O)N1CCc2c(nc3cc(-c4ccccc4Cl)[nH]n3c2=O)C1 | – | active: 15.8 µM
COc1ccc(F)cc1-c1ccc(CN2CCC(N[S+](=O)([O-])c3c(C)noc3C)C2)cc1 (centres undefined) | – | inconclusive: 50.1 µM [inhibitor, partial curve, poor fit]
Cc1oc2c(c1C(=O)N(C)CCc1ccccn1)CN(Cc1cccc(F)c1)CC2 | – | inconclusive: 31.6 µM [inhibitor, full curve, poor fit]
Cn1cc(-c2ccnc(N3CCOCC3)c2)c2nc(COc3ccc(Cl)cc3)cn2c1=O | – | active: 28.2 µM
COCc1nc(C2CC(NC(=O)c3c(F)ccc(C)c3Cl)C2)cc(=O)[nH]1 (centres undefined) | inactive: -0.355% | –
CC1(COCC2CC2)COc2ccc(C(=O)NCc3ccccc3)cc2N1 (centres undefined) | – | inconclusive: 89.1 µM [inhibitor, partial curve]
COCC1CN(C2CCC2)CC12CCN(C(=O)Cc1cccc(F)c1)CC2 (centres undefined) | – | inconclusive: 50.1 µM [inhibitor, partial curve, poor fit]
CCCCn1c(CN(C)Cc2cnn(-c3ccccc3C)c2)cnc1S(=O)(=O)CC | – | inconclusive: 35.5 µM [inhibitor, partial curve, poor fit]
